Some of the results follow. The full chains were built here from the parent and the listed change. Values near 0.05 are background.
B1: TEV protease; numbered along this chain (parent)
chain: MGESLFKGPRDYNPISSSICHLTNESDGHTTSLYGIGFGPFIITNKHLFRRNNGTLVVQSLHGVFKVKDTTTLQQHLVDGRDMIIIRMPKDFPPFPQKLKFREPQREERICLVTTNFQTKSMSSMVSDTSCTFPSGDGIFWKHWIQTKDGQCGSPLVSTRDGFIVGIHSASNFTNTNNYFTSVPKNFMELLTNQEAQQWVSGWRLNADSVLWGGHKVFMVKPEEPFQPVKEATQL

Variants of: B1
Test: raw area under fraction-flipped curve 0-4 h after induction (AUC4h, not background-subtracted), DNA-recorder readout of cleavage of the substrate (dimensionless); higher = more cleavage of the substrate by the protease variant
Details: temperature: 34 °C; time window: 0-4 h after rhamnose induction
Procedure: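 In vivo DNA recorder in E. coli TOP10(DE3) ΔrhaA at 34 °C. Each TEVp single-site mutant (parent TEVp 0) is paired with a single-site variant of the 7-mer TEVs (canonical ENLYFQ|S). The substrate sits between flexible linkers in a Bxb1-sfGFP-TEVs-SsrA fusion, so cleavage stabilises Bxb1 and speeds flipping of a recombination array, read by NGS. The value is the raw area under the fraction-flipped curve over 0-4 h after rhamnose induction (AUC4h), with ≥20 reads per time point. It is not background-subtracted; inactive controls average about 0.047.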
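Note: Bxb1 expression induced with 0.2% (w/v) L-rhamnose at OD600 near 0.5, cultures sampled hourly, flipped fraction per protease–substrate barcode pair counted by paired-end Illumina sequencing.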

Variant | area with substrate ENLAFQS | area with substrate ENLCFQS | area with substrate ENLDFQS | area with substrate ENLEFQS | area with substrate ENLFFQS | area with substrate ENLGFQS | area with substrate ENLHFQS | area with substrate ENLIFQS | area with substrate ENLKFQS | area with substrate ENLNFQS | area with substrate ENLPFQS | area with substrate ENLQFQS | area with substrate ENLSFQS | area with substrate ENLVFQS | area with substrate ENLWFQS | area with substrate ENLLFQS | area with substrate ENLMFQS | area with substrate ENLRFQS
MGESLFKGPRCYNPISSSICHLTNESDGHTTSLYGIGFGPFIITNKHLFRRNNGTLVVQSLHGVFKVKDTTTLQQHLVDGRDMIIIRMPKDFPPFPQKLKFREPQREERICLVTTNFQTKSMSSMVSDTSCTFPSGDGIFWKHWIQTKDGQCGSPLVSTRDGFIVGIHSASNFTNTNNYFTSVPKNFMELLTNQEAQQWVSGWRLNADSVLWGGHKVFMVKPEEPFQPVKEATQL [D11C] | 0.0832 | 0.0652 | 0.0671 | 0.0627 | 0.103 | 0.0703 | 0.0759 | 0.104 | 0.0682 | 0.0532 | 0.0462 | 0.0631 | 0.0589 | 0.0928 | 0.0657 | – | – | –
MGESLFKGPRDYNPISTSICHLTNESDGHTTSLYGIGFGPFIITNKHLFRRNNGTLVVQSLHGVFKVKDTTTLQQHLVDGRDMIIIRMPKDFPPFPQKLKFREPQREERICLVTTNFQTKSMSSMVSDTSCTFPSGDGIFWKHWIQTKDGQCGSPLVSTRDGFIVGIHSASNFTNTNNYFTSVPKNFMELLTNQEAQQWVSGWRLNADSVLWGGHKVFMVKPEEPFQPVKEATQL [S17T] | 0.074 | 0.0598 | 0.0627 | 0.0818 | 0.0708 | 0.0615 | – | 0.074 | 0.0777 | 0.0623 | – | 0.132 | 0.0586 | – | 0.0754 | 0.0933 | – | –
MGESLFKGPRDYNPISSSICHLTNESNGHTTSLYGIGFGPFIITNKHLFRRNNGTLVVQSLHGVFKVKDTTTLQQHLVDGRDMIIIRMPKDFPPFPQKLKFREPQREERICLVTTNFQTKSMSSMVSDTSCTFPSGDGIFWKHWIQTKDGQCGSPLVSTRDGFIVGIHSASNFTNTNNYFTSVPKNFMELLTNQEAQQWVSGWRLNADSVLWGGHKVFMVKPEEPFQPVKEATQL [D27N] | 0.0501 | 0.0937 | 0.058 | – | 0.0985 | – | 0.0696 | – | 0.0584 | – | 0.0585 | 0.0536 | 0.0693 | – | – | – | 0.0668 | 0.0387
MGESLFKGPRDYNPISSSICHLTNESDGHPTSLYGIGFGPFIITNKHLFRRNNGTLVVQSLHGVFKVKDTTTLQQHLVDGRDMIIIRMPKDFPPFPQKLKFREPQREERICLVTTNFQTKSMSSMVSDTSCTFPSGDGIFWKHWIQTKDGQCGSPLVSTRDGFIVGIHSASNFTNTNNYFTSVPKNFMELLTNQEAQQWVSGWRLNADSVLWGGHKVFMVKPEEPFQPVKEATQL [T30P] | 0.0689 | 0.0403 | 0.0623 | – | 0.0828 | 0.0515 | 0.0078 | 0.0677 | – | 0.0469 | 0.0542 | 0.0709 | 0.0255 | 0.0697 | 0.0554 | 0.053 | – | –

Reference: the supplement of paper PMC12217912
